This note sets out measurements from PMC12136788.

The list shows a part of the results.

T1: UNK ZnF1-3 (human, UniProt Q9C0B0 31-174)
T1 sequence: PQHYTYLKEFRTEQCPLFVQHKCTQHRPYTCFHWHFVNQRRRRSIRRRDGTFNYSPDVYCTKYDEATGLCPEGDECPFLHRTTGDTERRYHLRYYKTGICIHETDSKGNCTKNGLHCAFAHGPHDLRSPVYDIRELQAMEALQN

B1: chr1:60041781:60041782:+_ENSMUSG00000041040_ENSMUST00000036540|mus_hu|mus_mus_mus_hu_False|28_48 (ssRNA)
RNA: GGGAGUUCUACAGUCCGACGAUCAAGUUUACAAUAGUAAAGUAAAUGCAGUAGUGGCAAAUUUUCUUUUAUUUUCCUUCACAAAAGAAAACCUCAGUAACCCAGUCCAAUCCCAGAACAUAGUGAAAGCUAUAAAUUCUGACUCAACAGAGGAUUGAGCAUCA
B2: chr2:74714714:74714715:+_ENSMUSG00000027099_ENSMUST00000028511|mus_mus|FALSE|FALSE (ssRNA)
RNA: GGGAGUUCUACAGUCCGACGAUCAUGCUCAUAAAGAAAGAAAAUGUCAAGAUAUAGAAUUUAAUGUAACAAAUCAAACAAUUCAAAAGCAAAGUGUACACAAAUAACAGUACAAAGGACAUGUAUAUGACAUUAUGCAAAUUUCAACAGAGGAUUGAGCAUCA
B3: 68597113_68597233_518_CDS_ENSG00000184939_ENST00000398253|human|control|control (ssRNA)
RNA: GGGAGUUCUACAGUCCGACGAUCCCUUAUUCUUGCAGGAAUGUUCAGUUGUGUAACCAAAUUGGUGUUCAAUCUAGAAUUUUCACCAAAUUUAUUUUGCUCAAAAUUUUCUUGUGGUGUAAUUAUUUUCUUCUGGGUGGAUGCCAACAGAGGAUUGAGCAUCA
B4: chr9:44212477:44212478:-_ENSMUSG00000032112_ENSMUST00000034623|mus_mus|FALSE|FALSE (ssRNA)
RNA: GGGAGUUCUACAGUCCGACGAUCUGGAUUCUUGAGGGCAAAGUCUGAGUAAAUUUCAUAAAUUUUUCGGAGAAGAGAAUCUAUUCCAGCUUGCCUAGGGUCUGCCAGGACCACAAACUUGAUCCCUGUCAGUGUUUGGAAGCACAACAGAGGAUUGAGCAUCA
B5: chr4:71639242:71639243:+_ENSG00000018189_ENST00000226328|hu_hu|motif|central (ssRNA)
RNA: GGGAGUUCUACAGUCCGACGAUCACCGUCUCCUUCAGUACCUUUACUGCUGUUCCCGUCCUUGAGAUACAUUGAAAAAUCGGUAACUCCAACCUGAGAGUCCAAGUCUUCUCCUUUCAUACAGAAAUUGGCAUCAAUGACAUUCAACAGAGGAUUGAGCAUCA
B6: 102171521_102173921_3878_CDS_ENSMUSG00000021182_ENSMUST00000068411|mouse|control|control (ssRNA)
RNA: GGGAGUUCUACAGUCCGACGAUCCUCCCCUUUCAGCUGCUGGUGCAGGAAGCUGAUCCUGUCCAGCUCUCCUCGAAGCCUCUGGUUCUCGCUCGUGGCAAUGGCGUUGGUCUUCUGCUCCCGCUCAAGUGCCUCCCGCUCGGUCAACAGAGGAUUGAGCAUCA
B7: chr9:91949571:91949572:+_ENSG00000187742_ENST00000375807|hu_mus|motif|central (ssRNA)
RNA: GGGAGUUCUACAGUCCGACGAUCAUAAACACGCUUUUCUCUGUUGUAGGAAGGAUUUGAAGAUAAAGCCUCAGAUGUCACACGGACAUUUUUAGCAUCAGCUGAUGAAGUAGUCUUCUUUAGGUUUAUCAUGGAAGUCACAUUCAACAGAGGAUUGAGCAUCA
B8: 82409419_82415958_1440_CDS_ENSG00000117114_ENST00000319517|human|control|control (ssRNA)
RNA: GGGAGUUCUACAGUCCGACGAUCGCCUUUCUGUGAAGUAGUGCUUGUGGUUGAUAUUAUGGUUUUGAACAGCUCAGCUGAAGAAGUUAUUGUCACAGCUGUGGUAGGCACUUGGGCAGGAUCAGGUGGACCAAACUCCAGAGACAACAGAGGAUUGAGCAUCA
B9: 102510691_102510811_12989_CDS_ENSG00000197102_ENST00000360184|human|control|control (ssRNA)
RNA: GGGAGUUCUACAGUCCGACGAUCUUGAAUGUCUUUAUGUCCGUCGACCUUGCAUGCCAGCUUAAACUCACUGUCGAAACUCCUGGUUGUGAACAGGCGCUCCAGGAAGGUGUUGAGCAGACGCUGGUCAAACUCGUUGUCCACCAACAGAGGAUUGAGCAUCA
B10: chr17:1756424:1756425:+_ENSG00000132383_ENST00000254719|hu_hu|FALSE|FALSE (ssRNA)
RNA: GGGAGUUCUACAGUCCGACGAUCAUAGGGCACUGGAUUGCCAAUCUUCACUCCAACUGCUUCAGCUGACUUCAAAACUUCUAAUUCCAUCAAGAUAACUACUCUCCUUCCGUCUUUCAGAGUGUUCACAAUAAAUCUGUGAAUCAACAGAGGAUUGAGCAUCA
B11: 97146933_97147053_736_CDS_ENSMUSG00000050079_ENSMUST00000060389|mouse|control|control (ssRNA)
RNA: GGGAGUUCUACAGUCCGACGAUCAACAUUGUCUUCUGCUCCACUGUCAUCUCGGCAGAUGCAGGAAUUACCCAUAGUAGCAGUGGCACCUGUAGUCCCCAAUAGGUGGGCUAUGUGCUCCUCAAGAGUCAGCAGCAGACCCUGCAACAGAGGAUUGAGCAUCA
B12: 3419383_3419591_756_3pUTR_ENSMUSG00000024231_ENSMUST00000080089|mouse|control|control (ssRNA)
RNA: GGGAGUUCUACAGUCCGACGAUCUCUUGCUUGUAAUAUUCUCCCGUUUCAGUCAGAAAGGGAGACACGAAUAUUCCCUGAUAAAACUUUAAGGGAAAUUUUUUCUUAUACUGUUCAACAUGAACAAAGGAGUUAAUAACCCCACAACAGAGGAUUGAGCAUCA
B13: chr4:57889662:57889663:+_ENSG00000047315_ENST00000314595|hu_mus|FALSE|FALSE (ssRNA)
RNA: GGGAGUUCUACAGUCCGACGAUCGUUGAGAGUGACCAUGACCUGGUCCACGAUGCCCGUCUCACUAGUUCUGAGGAAAGUGCUGCAGUCCCUCUUGGUGUAGCGCCUGUUGGUGCUCUCCAGCUCAUCCUCGUUCUCGGGUAACAACAGAGGAUUGAGCAUCA
B14: 33856616_33856736_4179_3pUTR_ENSMUSG00000042197_ENSMUST00000044455|mouse|control|control (ssRNA)
RNA: GGGAGUUCUACAGUCCGACGAUCAACGAGCUGAAGCAGGCCCAAUGCUGCACAAAGACAUGUGCAAACUUGCCCCAGUAGAGUCUGGGUGGUUAGCCCUUUCUCAGAGGAAACCUGCACUGCUCCAGUCAUGGGCUAAAGUCUCAACAGAGGAUUGAGCAUCA
B15: chr15:103030146:103030147:-_ENSMUSG00000009575_ENSMUST00000118152|mus_mus|FALSE|FALSE (ssRNA)
RNA: GGGAGUUCUACAGUCCGACGAUCUUUGUUUUCCGCAUCCUCUGGAUAUGCGUGCCACGUCAGUCUCUCUUCAUAAAAUGCUAUCACAAUCUGUGGACACUUCACGUUAGCUUCUUUUGCAAGAACCAGGUCAGCUUCAUCUGUCAACAGAGGAUUGAGCAUCA
B16: chr2:48026839:48026840:+_ENSG00000116062_ENST00000540021|hu_hu|hu_hu_hu_mus_False|18_108 (ssRNA)
RNA: GGGAGUUCUACAGUCCGACGAUCAUAGUGUGCCACUAGCGUCCUAAAUCUGGAACAGUGGCGGUCAUCCGAAAACUGGCCGAUGAAAAACUUGCCCAGUGAAGUGUCCACAAAGCACACACCAUAUACACGAGUGUGACCAGACAACAGAGGAUUGAGCAUCA
B17: chr4:81121375:81121376:+_ENSG00000152784_ENST00000415738|hu_hu|FALSE|FALSE (ssRNA)
RNA: GGGAGUUCUACAGUCCGACGAUCUACCCGAAAGAUAUACGGUACUGUUCUCUUGUCAGUAGACUUGAGAGCUAUGAAAGCUAUGCUGUCAUAUAGGGAAGUAUGGCUCAGGACACAGGGACCAAAUAUAGCAUUCUCAGGGAUCAACAGAGGAUUGAGCAUCA
B18: 67236988_67238599_921_3pUTR_ENSMUSG00000031605_ENSMUST00000034017|mouse|control|control (ssRNA)
RNA: GGGAGUUCUACAGUCCGACGAUCUAAUCUUUGCACGCACUGCUGUUCUUCACCAAUGCUUCCUCUUCAACCCGCUGCACCAAGUACUCCCGAGGAAGCAGAGGUAAUCGGACAUGCUCCAUGAGCCGAGCCAUGAACUCCUGUCAACAGAGGAUUGAGCAUCA
B19: 165881002_165881122_2492_3pUTR_ENSMUSG00000027678_ENSMUST00000088095|mouse|control|control (ssRNA)
RNA: GGGAGUUCUACAGUCCGACGAUCUCUUAAUUUUGGGGUCUUUCUCUUGGCCAGAGCUGGGAUUGGUGGAGCAGCUGCACUGACUCAGUUUACUGUCCCCACUGUCGGCCUGGGGCUGCAGCUCUUUGGCAAGCACAUCACUGGCAACAGAGGAUUGAGCAUCA
B20: chr21:32491406:32491407:-_ENSG00000156299_ENST00000286827|hu_mus|FALSE|FALSE (ssRNA)
RNA: GGGAGUUCUACAGUCCGACGAUCAACCCUUCUUAAGGAAUGGACAUUGUGAAAUGGGGAGGAGGAGGGCGGAACAAAAAGCUAUAAACCUUUUUUUUUUUAAAAAUGAAAGUGCUAGAAUGGGUUUUGUUCUUCCUGUCUGGACAACAGAGGAUUGAGCAUCA
B21: chr18:25636641:25636642:-_ENSMUSG00000024268_ENSMUST00000025117|mus_mus|motif|central (ssRNA)
RNA: GGGAGUUCUACAGUCCGACGAUCUCAUUUACCAAAGAUAAAUAUCGUGCUUUCAUUAAAUAGUUUUCCUUGUUUUUUCUCGGUCAUUACAAUUAAAAGUCCUACAAAAUAUGCAAAUUUAUUUACAGAAAAACAGAGCCAGCACAACAGAGGAUUGAGCAUCA
B22: chr1:84735391:84735392:-_ENSMUSG00000026219_ENSMUST00000027421|perfect_dup|FALSE|FALSE (ssRNA)
RNA: GGGAGUUCUACAGUCCGACGAUCCAUUGCCCGGUCCCGAUCAAAUGCAGUUACAUAAAAAAGCAUUUGUCGGGUAUCAAAAGGAAAGAAAAAUGGGCAGGUUUUUCCUAGCUCAGUGAGCCAUGUUGGGAUGUUUCCUGUCAUCAACAGAGGAUUGAGCAUCA

The assay addresses T1, UNK ZnF1-3. Put plainly: nsRBNS (natural sequence RNA bind-n-seq); RBNS binding buffer (assumed for nsRBNS): 25 mM Tris pH 7.5, 150 mM KCl, 3 mM MgCl2, 0.01% Triton X-100, 500 ug/ml BSA, 20 U/ml SUPERase-In, 4 C; UNK is unkempt and MSI1 is Musashi-1; names of the RNAs are library labels; protein concentration not given here; high values mean tight binding.
B1: the binding signal was 0.788 enrichment R. Turning to B2, the binding signal amounted to 1.58 enrichment R. As for B3, the figure is 0.728 enrichment R; as for B4, 1.18 enrichment R. As for B5, the figure is 1.18 enrichment R; as for B6, 0.689 enrichment R; as for B7, 0.98 enrichment R. The figure for B8 is 1.33 enrichment R. Molecule B9 displayed a binding signal of 0.658 enrichment R. As for B10, the figure is 0.849 enrichment R; as for B11, 0.744 enrichment R; as for B12, 0.582 enrichment R.

On to B13, for which the binding signal worked out at 0.539 enrichment R. Molecule B14 showed a binding signal of 0.539 enrichment R. As to B15, the binding signal turned out to be 0.743 enrichment R. On to B16, for which the binding signal is 1.13 enrichment R. In the case of B17, the binding signal stood at 1.41 enrichment R. Take B18: the binding signal is 0.73 enrichment R. The figure for B19 is 0.866 enrichment R; for B20 it is 2.2 enrichment R. The figure for B21 is 0.994 enrichment R; for B22 it is 0.656 enrichment R.
